This note sets out measurements from the supplement of paper PMC11348887.

Structures are written as SMILES. Where a name gives a salt, the structure may show the parent alone. The list shows a part of the results. Cut-off read from the data, not from the text of the source: active = -2 or less and inactive = the rest. Repeats are few or missing, and single values can be far off.
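Note: nuclei counted from DAPI counterstain by automated high-content image analysis, four fields per well at ×20 in 384-well plates, with sequential b-score then z-score normalization.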

For this test, the system named is hPSC-derived cortical neurons (WA09). Description: nuclei number (viability) z-score; higher = more surviving cells. To be noted: 5 µM; treatment: days 7-14 after plating, readout day 21.
Regarding `COc1ccccc1C(=O)Nc1cc2c(cc1N1CCCC1)n(C)c(=O)n2C`, the “nuclei number (z-score)” value is inactive: 1.68.

As for `CC1(C)S[C@@H]2[C@H](NC(=O)[C@H](N)c3ccc(O)cc3)C(=O)N2[C@H]1C(=O)O` [Amoxicillin Sodium], the “nuclei number (z-score)” value is inactive: 2.39.

On to `CC1(C)S[C@@H]2[C@H](NC(=O)[C@H](N)c3ccc(O)cc3)C(=O)N2[C@H]1C(=O)O` [Amoxicillin], for which the “nuclei number (z-score)” value was inactive: 1.6.

In the case of `Cc1cc(C(=O)NOCCO)c(Nc2ccc(I)cc2F)n(C)c1=O`, the “nuclei number (z-score)” value is inactive: -0.131.

On to `COc1cccc2c1C(=O)c1c(O)c3c(c(O)c1C2=O)C[C@@](O)(C(=O)CO)C[C@@H]3O[C@H]1C[C@H](N)[C@H](O)[C@H](C)O1` [Doxorubicin (Adriamycin)], for which the “nuclei number (z-score)” value is inactive: -1.83.

Turning to `CCC(=O)O[C@@H](O[P@](=O)(CCCCc1ccccc1)CC(=O)N1C[C@H](C2CCCCC2)C[C@H]1C(=O)O)C(C)C` [Fosinopril Sodium], the “nuclei number (z-score)” value is inactive: -0.387.

On to `OCCOCCN1CCN(C2=Nc3ccccc3Sc3ccccc32)CC1` [Quetiapine Fumarate], for which the “nuclei number (z-score)” value was inactive: 0.0945.

Consider `Cc1nc(Nc2cnn(C3CCNCC3)c2)nc2c1N(C)C(=O)c1cc3ccccc3cc1N2C`, for which the “nuclei number (z-score)” value was inactive: -0.111.

With `Cn1nnc(-c2ccc(-c3ccc(N4C[C@H](COP(=O)(O)O)OC4=O)cc3F)cn2)n1` [Tedizolid Phosphate], the “nuclei number (z-score)” value was inactive: -0.0186.

`Nc1nc(Cl)nc2c1ncn2[C@H]1C[C@H](O)[C@@H](CO)O1` [Cladribine]: the “nuclei number (z-score)” value is active: -2.84.

Consider `CN[C@@H]1[C@H](O[C@H]2[C@H](O[C@H]3[C@H](O)[C@@H](O)[C@H](N=C(N)N)[C@@H](O)[C@@H]3N=C(N)N)O[C@@H](C)[C@]2(O)C=O)O[C@@H](CO)[C@H](O)[C@H]1O` [Streptomycin sulfate], for which the “nuclei number (z-score)” value was inactive: -0.0128.

As to `CCCc1cc(-c2nc(-c3ccc(C)cc3)cs2)ccn1` [Fatostatin HBr], the “nuclei number (z-score)” value was inactive: -0.0857.

In the case of `O=C(C=Cc1ccccc1)NC(NC(=S)Nc1ccc(Cl)cc1)C(Cl)(Cl)Cl` (stereo unspecified), the “nuclei number (z-score)” value is inactive: 0.542.

For the compound `O=C([C@@H](Cc1cccc(C(F)(F)F)c1)NS(=O)(=O)c1cc(F)c2c(c1)CCNC2)N1CCCC1`, the “nuclei number (z-score)” value is inactive: 1.77.

Regarding `Cc1ccc(Nc2c(F)cccc2Cl)c(CC(=O)O)c1` [Lumiracoxib], the “nuclei number (z-score)” value is inactive: 1.3.

Turning to `Fc1ccc(C(c2ccc(F)cc2)N2CCN(C/C=C/c3ccccc3)CC2)cc1` [Flunarizine 2HCl], the “nuclei number (z-score)” value was inactive: -1.31.

On to `Oc1ccc([C@H]2COc3cc(O)ccc3C2)cc1` [Equol], for which the “nuclei number (z-score)” value is inactive: -0.0247.

In the case of `O=c1cc(-c2cccc3c2Sc2ccccc2S3)oc(N2CCOCC2)c1`, the “nuclei number (z-score)” value was inactive: 0.831.

For `Cc1[nH]c2ccccc2c1CCNC(=O)c1cccs1`, the “nuclei number (z-score)” value was inactive: -0.501.

`N=C(N)c1ccc(OCCCCCOc2ccc(C(=N)N)cc2)cc1` [Pentamidine]: the “nuclei number (z-score)” value was active: -7.47.

For `Cc1nc2ccc(-n3ncc(C(=O)c4cc5ccccc5[nH]4)c3N)cc2[nH]1`, the “nuclei number (z-score)” value was inactive: 1.77.

For `CCCCC(=O)O[C@H]1CC[C@H]2[C@@H]3CCc4cc(O)ccc4[C@H]3CC[C@]12C` [Estradiol valerate], the “nuclei number (z-score)” value was inactive: 2.57.

For the compound `N#Cc1c(O)c2c(-c3ccc(-c4ccccc4O)cc3)csc2[nH]c1=O`, the “nuclei number (z-score)” value is inactive: 0.549.

`CC1C(=O)OC2C(O)C34C5CC(C(C)(C)C)C36C(OC(=O)C6O)OC4(C(=O)O5)C12O` (stereo unspecified) [Ginkgolide B]: the “nuclei number (z-score)” value was inactive: -0.112.

For the compound `C[N+](C)(C)CCCCCC[N+](C)(C)C` [Hexamethonium Bromide], the “nuclei number (z-score)” value is inactive: 1.02.

As for `O=c1ccc2ccc(OCCCCN3CCN(c4cccc5sccc45)CC3)cc2[nH]1` [Brexpiprazole], the “nuclei number (z-score)” value is inactive: -0.314.

Turning to `CN(C)/N=N/c1[nH]cnc1C(N)=O` [Dacarbazine], the “nuclei number (z-score)” value was inactive: 1.16.

Consider `Cc1cc(NC(=O)Nc2ccc(N(C)C)cc2)c2cc(F)cc(F)c2n1`, for which the “nuclei number (z-score)” value is inactive: -0.0769.

For the compound `Cc1onc(-c2c(Cl)cccc2Cl)c1C(=O)N[C@@H]1C(=O)N2[C@@H]1SC(C)(C)[C@@H]2C(=O)O` [Dicloxacillin Sodium], the “nuclei number (z-score)” value was inactive: 0.932.

With `Cn1cc(-c2ccc3ncc(Cc4ccc5ncccc5c4)n3n2)cn1`, the “nuclei number (z-score)” value is inactive: 1.91.

For `CCOC(=O)[C@H](CCc1ccccc1)N[C@@H](C)C(=O)N1Cc2ccccc2C[C@H]1C(=O)O` [Quinapril HCl], the “nuclei number (z-score)” value was inactive: 0.573.

As for `CC(CCc1ccccc1)NCC(O)c1ccc(O)c(C(N)=O)c1` (stereo unspecified) [Labetalol HCl], the “nuclei number (z-score)” value was inactive: 1.81.

Take `Cc1cn([C@H]2O[C@@H](CO)[C@H](O)[C@H]2F)c(=O)[nH]c1=O` [Clevudine]: the “nuclei number (z-score)” value was inactive: 0.692.

In the case of `O=C(O)c1cccnc1Nc1cccc(C(F)(F)F)c1` [Niflumic acid], the “nuclei number (z-score)” value is inactive: 0.105.

For `COc1ccc(C(Cl)=C(c2ccc(OC)cc2)c2ccc(OC)cc2)cc1` [Chlorotrianisene], the “nuclei number (z-score)” value is inactive: 4.31.

Turning to `Cc1oncc1C(=O)Nc1ccc(C(F)(F)F)cc1` [Leflunomide], the “nuclei number (z-score)” value was inactive: -0.508.

`CC1CC(OC(=O)C(O)c2ccccc2)CC(C)(C)C1` (stereo unspecified) [Cyclandelate]: the “nuclei number (z-score)” value is inactive: 0.044.

As to `O=C1[C@H](Cc2ccc(O)cc2)N2C(=O)CCN(C(=O)NCc3ccccc3)[C@H]2CN1Cc1cccc2ccccc12`, the “nuclei number (z-score)” value was inactive: 0.509.

Consider `CCn1c2ccccc2c2cc(Nc3ccnc(NCCCN4CCOCC4)n3)ccc21`, for which the “nuclei number (z-score)” value was active: -4.92.

As for `CC1(C)S[C@@H]2[C@H](NC(=O)[C@H](NC(=O)N3CCNC3=O)c3ccccc3)C(=O)N2[C@H]1C(=O)O` [Azlocillin sodium salt], the “nuclei number (z-score)” value is inactive: 0.429.

For the compound `COC(=O)Nc1nc2cc(C(=O)c3ccccc3)ccc2[nH]1` [Mebendazole], the “nuclei number (z-score)” value was inactive: 0.0287.

For `CC(C)OC(=O)[C@H](C)N[P@](=O)(OC[C@H]1O[C@@H](n2ccc(=O)[nH]c2=O)[C@](C)(F)[C@@H]1O)Oc1ccccc1` [Sofosbuvir (PSI-7977_ GS-7977)], the “nuclei number (z-score)” value was inactive: 1.42.

Turning to `Nc1nc2c(ncn2[C@@H]2O[C@H](CO)[C@@H](O)[C@H]2O)c(=O)[nH]1` [Guanosine], the “nuclei number (z-score)” value was inactive: -0.0157.

Turning to `Cc1cc2c(cc1S(N)(=O)=O)S(=O)(=O)CCC2` [Meticrane], the “nuclei number (z-score)” value was inactive: 0.488.

Consider `COCCOc1cnc2ccn([C@H](C)c3nnc4c(F)cc(-c5cnn(C)c5)cn34)c(=O)c2c1`, for which the “nuclei number (z-score)” value was inactive: 1.34.

On to `COC(=O)C1=C(C)NC(C)=C(C(=O)OCCN2CCN(C(c3ccccc3)c3ccccc3)CC2)C1c1cccc([N+](=O)[O-])c1` (stereo unspecified) [Manidipine], for which the “nuclei number (z-score)” value is inactive: -1.37.

`COC(=O)C1=C(C)NC(C)=C(C(=O)OCCN2CCN(C(c3ccccc3)c3ccccc3)CC2)C1c1cccc([N+](=O)[O-])c1` (stereo unspecified) [Manidipine 2HCl]: the “nuclei number (z-score)” value was active: -8.02.

As for `CC(C)N(C[C@H]1O[C@@H](n2cnc3c(N)ncnc32)[C@H](O)[C@@H]1O)[C@H]1C[C@@H](CCc2nc3cc(C(C)(C)C)ccc3[nH]2)C1`, the “nuclei number (z-score)” value was inactive: 0.459.

In the case of `COC(c1ccccc1)(c1ccccc1)[C@H](Oc1nc(C)cc(C)n1)C(=O)O` [Ambrisentan], the “nuclei number (z-score)” value is inactive: -0.215.

With `C[N+]1(C)[C@@H]2CC[C@H]1C[C@@H](OC(=O)C(O)c1ccccc1)C2` (stereo partly specified) [Homatropine Methylbromide], the “nuclei number (z-score)” value is inactive: 0.0907.

On to `CC(C(=O)O)c1ccc2c(c1)Cc1cccnc1O2` (stereo unspecified) [Pranoprofen], for which the “nuclei number (z-score)” value was inactive: 3.7.

`CC(C)(C)C(=O)Oc1ccc(S(=O)(=O)Nc2ccccc2C(=O)NCC(=O)O)cc1` [Sivelestat (ONO-5046)]: the “nuclei number (z-score)” value was inactive: 0.242.

In the case of `CC(C)(C)C(=O)Oc1ccc(S(=O)(=O)Nc2ccccc2C(=O)NCC(=O)O)cc1` [Sivelestat sodium tetrahydrate], the “nuclei number (z-score)” value was inactive: 0.0853.

With `O=C(N/N=C/c1cc(O)c(O)cc1O)c1cc2ccccc2cc1O` [Dyngo-4a], the “nuclei number (z-score)” value was inactive: 0.158.

With `Clc1ccc(NN=C(c2ccccc2)c2ccccn2)nc1`, the “nuclei number (z-score)” value is active: -4.3.

On to `C[N+]1(C)[C@@H]2C[C@@H](OC(=O)C(O)(c3cccs3)c3cccs3)C[C@H]1[C@@H]1O[C@@H]12` [Tiotropium Bromide hydrate], for which the “nuclei number (z-score)” value was inactive: -0.0498.

Turning to `CC(=O)Nc1ccccc1` [Acetanilide], the “nuclei number (z-score)” value was inactive: 0.3.

Turning to `O=C(/C=C/c1ccc2ccccc2n1)c1ccncc1`, the “nuclei number (z-score)” value was inactive: 0.461.

Regarding `Cc1cc(C(N)=O)ccc1-n1c(CCC(=O)O)ccc1-c1ccc(-n2ccnc2)cc1`, the “nuclei number (z-score)” value was inactive: 1.83.

With `COC(=O)C[C@H](NC(=O)[C@H](C)NC(=O)[C@@H](NC(=O)OCc1ccccc1)C(C)C)C(=O)CF`, the “nuclei number (z-score)” value was inactive: -0.495.

Consider `COC(=O)C[C@H](NC(=O)[C@H](C)NC(=O)[C@@H](NC(=O)OCc1ccccc1)C(C)C)C(=O)CF` [Z-VAD-FMK (Caspase Inhibitor VI)], for which the “nuclei number (z-score)” value is inactive: -0.0635.

Regarding `O=C[C@H](O)[C@@H](O)[C@H](O)CO` [Xylose], the “nuclei number (z-score)” value was inactive: -0.253.

On to `CC(=O)O[C@]1(C(C)=O)CC[C@H]2[C@@H]3C[C@H](C)C4=CC(=O)C=C[C@]4(C)[C@@]3(F)[C@@H](O)C[C@@]21C` [Fluorometholone Acetate], for which the “nuclei number (z-score)” value is inactive: -0.361.

Consider `O=c1cc(N2CCOCC2)oc2c(-c3cccc4c3sc3ccccc34)cccc12`, for which the “nuclei number (z-score)” value was inactive: -0.035.

In the case of `CC(C)(C(=O)O)c1ccc(C(O)CCCN2CCC(C(O)(c3ccccc3)c3ccccc3)CC2)cc1` (stereo unspecified) [Fexofenadine HCl], the “nuclei number (z-score)” value is inactive: 1.66.

`COc1ccc([C@@H]2CC(=O)c3c(O)cc(O[C@@H]4O[C@H](CO[C@@H]5O[C@@H](C)[C@H](O)[C@@H](O)[C@H]5O)[C@@H](O)[C@H](O)[C@H]4O)cc3O2)cc1O` [Hesperidin]: the “nuclei number (z-score)” value is inactive: 0.614.
